Laboratory results published in publication PMC4336329 (PLoS ONE, 2015).
Among all 310,000 compounds or so, about 2,200 (0.71%) showed an effect of 50% or more. Effects have a minus sign here. The list shows a part of the results.

target: human ether-à-go-go-related gene (hERG) potassium channel (human, UniProt Q12809); experiment: primary screen, population patch clamp on CHO cells stably expressing hERG
Sequence (Q12809 whole entry, looked up): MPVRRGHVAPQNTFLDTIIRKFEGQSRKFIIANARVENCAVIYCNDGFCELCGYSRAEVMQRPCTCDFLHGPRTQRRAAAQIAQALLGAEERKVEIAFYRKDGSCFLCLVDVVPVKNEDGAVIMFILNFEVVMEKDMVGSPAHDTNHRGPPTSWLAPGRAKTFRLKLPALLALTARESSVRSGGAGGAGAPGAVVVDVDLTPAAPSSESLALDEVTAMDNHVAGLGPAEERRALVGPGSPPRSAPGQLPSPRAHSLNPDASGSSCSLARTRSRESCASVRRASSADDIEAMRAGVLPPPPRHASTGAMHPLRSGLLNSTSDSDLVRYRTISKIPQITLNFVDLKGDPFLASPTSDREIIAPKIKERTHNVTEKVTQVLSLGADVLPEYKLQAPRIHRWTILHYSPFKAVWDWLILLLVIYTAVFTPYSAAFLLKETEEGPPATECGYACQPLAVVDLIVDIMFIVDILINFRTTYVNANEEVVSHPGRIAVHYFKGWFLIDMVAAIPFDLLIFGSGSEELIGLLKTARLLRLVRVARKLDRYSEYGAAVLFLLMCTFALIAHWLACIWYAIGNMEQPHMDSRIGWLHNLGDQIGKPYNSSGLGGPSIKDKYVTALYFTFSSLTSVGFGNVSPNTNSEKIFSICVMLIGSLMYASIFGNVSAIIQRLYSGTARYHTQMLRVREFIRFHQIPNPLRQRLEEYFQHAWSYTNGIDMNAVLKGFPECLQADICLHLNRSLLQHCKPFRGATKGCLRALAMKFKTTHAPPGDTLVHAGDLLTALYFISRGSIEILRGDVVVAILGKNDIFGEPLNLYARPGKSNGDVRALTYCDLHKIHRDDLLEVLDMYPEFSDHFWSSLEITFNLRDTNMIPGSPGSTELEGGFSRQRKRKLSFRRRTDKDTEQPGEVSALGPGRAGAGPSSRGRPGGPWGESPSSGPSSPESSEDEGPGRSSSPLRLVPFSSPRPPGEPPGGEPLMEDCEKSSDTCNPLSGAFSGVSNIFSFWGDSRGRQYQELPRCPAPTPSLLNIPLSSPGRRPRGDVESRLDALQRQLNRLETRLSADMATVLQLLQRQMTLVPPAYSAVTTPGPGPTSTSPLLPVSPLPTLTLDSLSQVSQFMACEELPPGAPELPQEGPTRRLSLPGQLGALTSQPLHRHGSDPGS

| SMILES | hERG current change (%, negative = inhibition) at 1uM |
| --- | --- |
| CCSc1nnc(Cc2cc(=O)[nH]c(=O)[nH]2)n1-c1ccc(F)cc1 | 10.1% |
| O=C(NCc1ccccc1)c1cc(-c2ccncc2)nc2ccc(S(=O)(=O)N3CCOCC3)cc12 | 8.83% |
| O=C(N=C1SC2CS(=O)(=O)CC2N1c1ccccc1C(F)(F)F)C1CCCO1 (stereo not shown) | 13.4% |
| Cc1cccnc1NC(=O)CN1C(=O)NC(C)(c2ccc3ccccc3c2)C1=O (stereo not shown) | 0.186% |
| Cc1onc(-c2ccccc2)c1C(=O)Nc1nnc(C(C)C)s1 | -1.64% |
| O=C(c1cn(-c2ccccc2)nc1-c1cccs1)N1CCN(c2ccc(F)cc2)CC1 | 8.44% |
| CCN(C(=O)CSc1ncn[nH]1)C1CCCCC1 | 7.97% |
| CCOC(=O)CCP(=O)(O)C(C)(O)c1ccccc1 (stereo not shown) | 12% |
| Cn1c(CO)cnc1SCC(=O)c1ccc(Br)cc1 | 20.3% |
| O=C1c2cc(CO)cc(O)c2C(=O)c2c(O[C@@H]3OC(CO)[C@@H](O)[C@@H](O)[C@@H]3O)cccc21 (stereo partly shown) | 15.9% |
| O=S(=O)(NCc1cn2ccsc2n1)c1ccc(Oc2ccccc2)cc1 | 0.948% |
| Cc1ncc([N+](=O)[O-])n1CCOC(=O)NC(NCc1ccccc1Cl)C(Cl)(Cl)Cl (stereo not shown) | 2.59% |
| COc1ccc(CCN2CN(S(=O)(=O)c3ccccc3)c3nc4ccccc4nc32)cc1OC | 7.48% |
| Cc1cc(O)c(C(C)C)cc1NS(=O)(=O)c1ccccc1 | 10.4% |
| COc1ccc(C(CNC(=O)C(CCSC)NC(=O)c2ccccc2Cl)N2CCOCC2)cc1 (stereo not shown) | 8.28% |
| CCOc1ccc(NS(=O)(=O)c2ccc(C(=O)N(C)CC(=O)Nc3ccc(C)cc3)cc2)cc1 | 15.5% |
| Cc1cc(C)nc(NS(=O)(=O)c2ccc(NC(=O)c3ccc(N4C(=O)CCC4=O)cc3)cc2)n1 | 10.9% |
| CCOc1ccc(-c2csc(NC(=O)c3ccco3)n2)cc1 | 8.42% |
| CC(=O)Nc1ccc(C(=O)OCC(=O)Nc2ccc(Cl)cc2C(=O)c2ccccc2)cc1 | 1.4% |
| COc1ccc(NC(=O)C2(c3ccc(NC(=O)c4ccc(OC)cc4)cc3)CCCC2)cc1 | -12.1% |
| COc1ccc(S(=O)(=O)N2CCOCC2)cc1C(=O)N1CCCC1 | 15.7% |
| O=C(O)c1cccc(Nc2nc(N3CCOCC3)nc(N3CCOCC3)n2)c1 | 9.41% |

| SMILES | hERG current change (%, negative = inhibition) at 1uM |
| --- | --- |
| O=C(O)CN1C(=O)S/C(=C\c2cccnc2)C1=O | 12.8% |
| Cc1c(C(N)=O)sc2ncn(CC(=O)NCCc3ccccc3)c(=O)c12 | 0.398% |
| Cc1ccccc1CNC(=O)CC1C(=O)NCCN1CC1CCCCC1 (stereo not shown) | 13.5% |
| NC(=O)c1ccc(Oc2cccc3cccnc23)c([N+](=O)[O-])c1 | -7.15% |
| CCOC(=O)c1[nH]c2ccccc2c1N=C(C)N(CC)CC | -29.6% |
| COc1ccccc1N1CC(C(=O)OCC(=O)Nc2c(C)cccc2C)CC1=O (stereo not shown) | 6.41% |
| O=C(Nc1ccc(-n2cc(Br)cn2)cc1)c1ccncc1 | 18% |
| c1ccc2c(CN3CCOCC3)c[nH]c2c1 | 15.8% |
| CC(C)[C@H]1CN=C2N(CCNC(=O)CCC3CCCCC3)[C@H](Cc3ccc(O)cc3)CN21 | -2.53% |
| O=C(O)c1ccc(NC(=S)NC(NC(=O)c2ccco2)C(Cl)(Cl)Cl)cc1 (stereo not shown) | 4.1% |
| COc1cccc(NC(=O)Nc2cccn(Cc3ccc(C)cc3)c2=O)c1 | 17.8% |
| COc1ccc(CCC(=O)NCCc2cn3c(C)csc3n2)cc1 | 5.57% |
| CCOC(=O)N1CCC2(CC1)C(C#N)=C(N)Oc1n[nH]c(CSc3ccc(C)cc3)c12 | 5.09% |
| CSC1=NCCN1C(=O)COc1ccccc1 | 13.4% |
| CSc1cccc(NC(N)=O)c1 | 8.09% |
| O=C(Nc1cccc(Cl)c1)OC1CCCCc2cccnc21 (stereo not shown) | 14.2% |
| NC(=O)c1c(NC(=O)c2ccc(F)cc2)sc2c1CCC2 | 11.8% |
| CC(C)[C@H](NC(=O)OC(C)(C)C)C(=O)N1CCC(C(=O)N[C@@H](C)C(=O)Nc2ccc(F)cc2)CC1 | 11.9% |
| COc1ccc(-c2nn(CCC#N)cc2C(=O)Nc2ccccc2Br)cc1[N+](=O)[O-] | 0.755% |
| CNc1ccc(/C=C/C(=O)c2ccc3c(c2)OCCO3)cc1[N+](=O)[O-] | 14.5% |
| COc1ccc(/C=C/c2ccc3cccc(O)c3n2)c(OC)c1OC | 19.3% |
| Cc1ccc(C)c(OCc2cc(C(=O)NC3CCOC(C)(C)C3)no2)c1 (stereo not shown) | 12.5% |

| SMILES | hERG current change (%, negative = inhibition) at 1uM |
| --- | --- |
| COc1ccc(-n2c(SCC[NH+](C)C)nc3ccccc3c2=O)cc1.[Cl-] | -1.62% |
| CSc1nnnn1CCn1nnnc1SC | 8% |
| Cl.O.O=C(NCCCCCCNC(=O)c1cncc(O)c1)c1cncc(O)c1 | 10.5% |
| N#Cc1c(-c2ccc3c(c2)OCO3)ccn2nc(-c3cccc(C(F)(F)F)c3)nc12 | 0.0555% |
| COCCCNC(=S)Nc1ccc2nc3n(c(=O)c2c1)CCCCC3 | 10.9% |
| CN(C)/C=N/c1nc2nccc(-c3ccccc3)n2n1 | 11.4% |
| Cc1ccc(S(=O)(=O)Nc2nc3ccccc3nc2NCc2ccco2)cc1 | 4.78% |
| Cc1ccc(S(=O)(=O)N2CCN(CC(=O)Nc3ccc([N+](=O)[O-])cc3)CC2)cc1C | -3.12% |
| CC(C)CN(C(=O)c1cccc(S(=O)(=O)N2CCN(C)CC2)c1)C1CCS(=O)(=O)C1 (stereo not shown) | 15.7% |
| COc1cccc(CN(C)CC(=O)Nc2sc3c(c2C#N)CCC3)c1OC | 7.66% |
| O=C(CCc1nc2ccccc2c(=O)[nH]1)OCc1ccc(-c2ccccc2)cc1 | 15% |
| COC(=O)c1c(C)oc(C)c1S(=O)(=O)N(Cc1ccccc1)C(C)C | 18.9% |
| CC1CC(C)CN(C(=O)C2CCN(S(=O)(=O)c3c(Cl)cccc3Cl)CC2)C1 (stereo not shown) | 7.94% |
| COc1cc2c(cc1OC)-c1cc(Nc3ccc(C(=O)O)cc3)nc(=O)n1CC2 | 8.27% |
| CCC(C)OC(=O)C[N+](C)(C)CCOC1CC2CCC1(C)C2(C)C.[Cl-] (stereo not shown) | 10.1% |
| CCOc1ccc(N(CC(=O)Nc2cc(C)ccc2C)S(=O)(=O)c2c(C)[nH]c(=O)[nH]c2=O)cc1 | -3.81% |
| COc1cccc(C(=O)NCC(=O)OCC(=O)Nc2cc(OC)c([N+](=O)[O-])cc2C)c1 | 9.21% |
| O=C(c1ccco1)N1CCN(Cc2nnc(-c3cccc(Cl)c3)o2)CC1 | -13.8% |
| CS(=O)(=O)N(CC(=O)N1CCCC1)Cc1ccc(F)cc1 | 17.8% |
| C=C(C)CNC(=S)NNC(=O)CCn1c2cc(Cl)ccc2c2ccc(Cl)cc21 | 13% |
| CCCCn1c(N)c(N(CCC(C)C)C(=O)c2cccc(S(=O)(=O)N3CCN(C)CC3)c2)c(=O)[nH]c1=O | 7.75% |
| CCc1c(C)nc(SC)n(CC#N)c1=O | 5.77% |

| SMILES | hERG current change (%, negative = inhibition) at 1uM |
| --- | --- |
| Cc1cccc(N2CCN(S(=O)(=O)c3ccc4[nH]c(=O)ccc4c3)CC2)c1C | 9.28% |
| O=C1N(Cc2cccnc2)C[C@@H]2C[C@@H](c3cccc(OC4CCCC4)c3)N3CCC[C@@]123 | -53.3% |
| Cc1c(Cl)cccc1NC(=O)CC1SCCNC1=O (stereo not shown) | 1.6% |
| Clc1cccc(-c2noc3ncnc(Nc4ccc5c(c4)OCO5)c23)c1 | 17.3% |
| COc1ccc(/C=N/N2CCOCC2)cc1Cn1nc(C)c([N+](=O)[O-])c1C | 7.31% |
| COc1cc(C(=O)NCc2nnc(SCC(=O)N3CCCCCC3)o2)cc(OC)c1OC | 11.6% |
| O=C(/C=C/Nc1ccccc1C(=O)O)c1cccs1 | 14.3% |
| O=C(N/N=C/c1c(O)n(CCc2ccccc2)c(=O)[nH]c1=O)c1ccccc1O | -4.33% |
| CCOC(=O)Cc1csc(NC(=O)C2CCCN(S(=O)(=O)c3cnc[nH]3)C2)n1 (stereo not shown) | 6.87% |
| O=C(COC(=O)c1ccccn1)NC(=O)c1ccccc1 | -5.45% |
| O=c1[nH]c(=O)n(C(c2ccccc2)c2ccccc2)cc1Br | 1.23% |
| O=C(NCC(=O)N1CCN(c2ccccn2)CC1)c1ccc(Br)o1 | 9.49% |
| CCOC(=O)c1c(NC(=O)CSc2nnnn2-c2ccc3c(c2)OCCO3)sc(C)c1C | 13.5% |
| CCC(CC)NC(=O)CN(c1ccccc1OC)S(=O)(=O)c1cccs1 | 1.24% |
| COc1ccccc1CNC(=O)C1Cc2cc(S(=O)(=O)N3CCCCC3)ccc2N1C(C)=O (stereo not shown) | 4.52% |
| Cc1cc(C)c(S(=O)(=O)NCC(=O)NCc2ccccn2)c(C)c1 | 7.06% |
| COc1ccc(C2/C(=C(/O)c3ccccc3)C(=O)C(=O)N2C)cc1OC (stereo not shown) | 1.22% |
| Cc1nc2[nH]c(=S)[nH]c2cc1Br | 9.44% |
| Cc1[nH][nH]c(=O)c1C(c1ccc(O)c(Br)c1)c1c(C)[nH][nH]c1=O | 15.1% |
